Measured values reported in a collection of fitness landscapes (doi:10.1016/j.celrep.2020.107928).
The full ranking holds about 81,000 sequences; the median of “one-hybrid fitness for binding parS DNA” is about -0.17, and the highest 2% start at about 0.51. Some of the results follow.

B1: Caulobacter ParB omega fusion; a variant is named by its letters at X, in order, B8GW30 (parent)
chain: MESVVVGEPGMSEGRRGLGRGLSALLGEVDAAPAQAPGEQLGGSREAPIEILQRNPDQPRRTFREEDLEDLSNSIREKGVLQPILVRPSPDTAGEYQIVAGERAWRAAQRAGLKTVPIMVRELDDLAVLEIGIIENVQRADLNVLEEALSYKVLMEKFERTQENIAQTIGKSXSHVANXMRLLXLPDEVQSYLVSGELTAXHARAIAAAADPVALAKQIIEGGLSVRETEALARKAPNLSAGKSKGGRPPRVKDTDTQALESDLSSVLGLDVSIDHRGSTGTLTITYATLEQLDDLCNRLTRGI

Variants of: B1
Test: one-hybrid fitness for binding parS DNA (scaled: cognate 1, non-cognate 0); higher = stronger binding
Details: with parS DNA site
Outline: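 Pre- and post-selection plasmids were Illumina-sequenced, three replicate libraries were pooled, and any variant with under 10 reads was removed. The libraries were Caulobacter ParB with four specificity codons randomised, selected in E. coli USO through a HIS3 reporter whose site is 19 bp from the promoter. Cells grew 48 hours at 37°C on M9 without histidine, with 0.1 mM IPTG and 5 mM 3-AT. Fitness is the log change in variant-to-wild-type read ratio, rescaled against cognate and non-cognate.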

Variant	one-hybrid fitness for binding parS DNA
TDAW	0.252
TRQG	≤ 0.2
ITRL	≤ 0.2
MLPC	≤ 0.2
QQYW	≤ 0.2
RPRH	≤ 0.2
PGKK	≤ 0.2
GQYR	≤ 0.2
AAMS	≤ 0.2
VTMC	≤ 0.2
RDPQ	≤ 0.2
ISEV	≤ 0.2
GIYT	≤ 0.2
VQHW	≤ 0.2
QNKP	≤ 0.2
HMNC	≤ 0.2
MPEG	≤ 0.2
YHDY	≤ 0.2
MDNR	≤ 0.2
PEAC	≤ 0.2
REIC	≤ 0.2
PHKH	≤ 0.2
IFSS	≤ 0.2
LLAK	≤ 0.2

Variant	one-hybrid fitness for binding parS DNA
ICQC	≤ 0.2
VFPN	≤ 0.2
TVQV	≤ 0.2
RSKL	≤ 0.2
TGRT	≤ 0.2
QNHL	≤ 0.2
LWYR	≤ 0.2
TGEG	≤ 0.2
NSSD	≤ 0.2
GCVS	≤ 0.2
GNLG	≤ 0.2
YCTC	≤ 0.2
FFSR	≤ 0.2
KNLD	≤ 0.2
AVLG	≤ 0.2
QKRV	≤ 0.2
SQRR	≤ 0.2
ICSS	≤ 0.2
TDKG	≤ 0.2
KSPG	≤ 0.2
LLKT	≤ 0.2
DYTR	≤ 0.2
REDR	≤ 0.2
GDND	≤ 0.2

Variant	one-hybrid fitness for binding parS DNA
ARGV	≤ 0.2
HNHS	≤ 0.2
KDRG	≤ 0.2
QAIF	≤ 0.2
HSEK	≤ 0.2
QGSR	≤ 0.2
IYDS	≤ 0.2
QQKD	≤ 0.2
DRSF	≤ 0.2
RKGA	0.694
KGWC	≤ 0.2
TLWF	≤ 0.2
RVDI	≤ 0.2
QHWT	≤ 0.2
VTPF	≤ 0.2
REHI	≤ 0.2
TTEI	≤ 0.2
QRHL	≤ 0.2
TYTQ	≤ 0.2
DARM	≤ 0.2
QQQL	≤ 0.2
VLWA	≤ 0.2
CGDV	≤ 0.2
HTCS	≤ 0.2

Variant	one-hybrid fitness for binding parS DNA
MDWG	≤ 0.2
SYPF	≤ 0.2
QSWG	≤ 0.2
ALAE	≤ 0.2
PERR	≤ 0.2
TAFT	≤ 0.2
WDRR	≤ 0.2
RYQV	≤ 0.2
MLFC	≤ 0.2
DYLT	≤ 0.2
LEAW	≤ 0.2
RICP	≤ 0.2
ITNK	≤ 0.2
PFIC	≤ 0.2
PHGW	≤ 0.2
RWKG	0.901
ARNA	≤ 0.2
ARYC	≤ 0.2
QVSN	≤ 0.2
AYMR	≤ 0.2
TSFQ	≤ 0.2
YMWL	≤ 0.2
AYNG	≤ 0.2
TVTM	≤ 0.2

Variant	one-hybrid fitness for binding parS DNA
PLFD	≤ 0.2
LYAY	≤ 0.2
KDVS	≤ 0.2
DGVM	≤ 0.2
VIVG	≤ 0.2
ADKR	≤ 0.2
WGLR	≤ 0.2
TAKK	≤ 0.2
FVVG	≤ 0.2
RMVL	≤ 0.2
QNLD	≤ 0.2
RDHY	≤ 0.2
QISF	≤ 0.2
QYEV	≤ 0.2
IRRC	≤ 0.2
VWHT	≤ 0.2
IPSC	≤ 0.2
THTG	≤ 0.2
CYMR	≤ 0.2
RQPN	≤ 0.2
RYMS	0.963
ACCG	≤ 0.2
RDSP	≤ 0.2
SPQM	≤ 0.2

Variant	one-hybrid fitness for binding parS DNA
CTRR	≤ 0.2
NPFK	≤ 0.2
SASR	≤ 0.2
CWKG	≤ 0.2
GLRA	≤ 0.2
ADCA	≤ 0.2
GLVG	≤ 0.2
RIYC	0.964
SFWR	≤ 0.2
DMAR	≤ 0.2
NINV	≤ 0.2
HQLT	≤ 0.2
TLHL	≤ 0.2
RRTD	≤ 0.2
ECHE	≤ 0.2
YVDA	≤ 0.2
CAIS	≤ 0.2
HGRR	≤ 0.2
CLCG	≤ 0.2
RHGW	≤ 0.2
GTFE	≤ 0.2
RKEN	0.351
GTSL	≤ 0.2
LNSC	≤ 0.2

Variant	one-hybrid fitness for binding parS DNA
MIPR	≤ 0.2
HSMV	≤ 0.2
TIYG	≤ 0.2
SHPH	≤ 0.2
HPEC	≤ 0.2
DEHN	≤ 0.2
AAKF	≤ 0.2
STEW	≤ 0.2
RSFF	≤ 0.2
SYPL	≤ 0.2
QPND	≤ 0.2
EIQC	≤ 0.2
LYKR	≤ 0.2
SFTP	≤ 0.2
GFGY	≤ 0.2
LQKK	≤ 0.2
LRFH	≤ 0.2
SKSG	≤ 0.2
QLVW	≤ 0.2
PGRT	≤ 0.2
PHAF	≤ 0.2
DETM	≤ 0.2
MSNS	≤ 0.2
MRID	≤ 0.2

Variant	one-hybrid fitness for binding parS DNA
DGHF	≤ 0.2
CCQY	≤ 0.2
TLLY	≤ 0.2
LDDM	≤ 0.2
SFAP	≤ 0.2
YQGC	≤ 0.2
AHLD	≤ 0.2
VAMH	≤ 0.2
PEPD	≤ 0.2
NLWC	≤ 0.2
GYDR	≤ 0.2
IEAA	0.301
PCGS	≤ 0.2
QNHG	≤ 0.2
LTAP	≤ 0.2
AMYS	≤ 0.2
RYSL	≤ 0.2
VMVR	≤ 0.2
SLCT	≤ 0.2
HTNG	≤ 0.2
PNHS	≤ 0.2
ERKY	≤ 0.2
RTKF	0.734
SMAN	≤ 0.2

Variant	one-hybrid fitness for binding parS DNA
GVVS	≤ 0.2
MSRT	≤ 0.2
RMYV	≤ 0.2
MKPF	≤ 0.2
YCCS	≤ 0.2
IKAC	≤ 0.2
AKQC	≤ 0.2
YGFT	≤ 0.2
THHV	≤ 0.2
SNTM	≤ 0.2
STGP	≤ 0.2
DLTW	≤ 0.2
LNTS	≤ 0.2
VKRV	≤ 0.2
EQAF	≤ 0.2
ENKC	≤ 0.2
LQLI	≤ 0.2
YFDI	≤ 0.2
FARS	≤ 0.2
DFDS	≤ 0.2
FLYT	≤ 0.2
ITCR	≤ 0.2
KGHG	≤ 0.2
DTNG	≤ 0.2

Variant	one-hybrid fitness for binding parS DNA
CPGR	≤ 0.2
VAVG	≤ 0.2
KLIL	≤ 0.2
ASRQ	≤ 0.2
VWHS	≤ 0.2
FKSL	≤ 0.2
RQDA	0.546
QKNG	≤ 0.2
NNGV	≤ 0.2
QAHT	≤ 0.2
EEVR	≤ 0.2
SSKS	≤ 0.2
KKMV	≤ 0.2
PSVA	≤ 0.2
GCQG	≤ 0.2
SQRC	≤ 0.2
PRYC	≤ 0.2
YNTL	≤ 0.2
RSRG	0.965
THMS	≤ 0.2
QMYA	≤ 0.2
RLHT	0.937
AEGI	≤ 0.2
LKLA	≤ 0.2

Variant	one-hybrid fitness for binding parS DNA
YCTD	≤ 0.2
STLV	≤ 0.2
WRES	≤ 0.2
QLWR	≤ 0.2
ANMV	≤ 0.2
RDDR	≤ 0.2
VGEF	≤ 0.2
PTTL	≤ 0.2
RTMI	≤ 0.2
VRIW	≤ 0.2
VETW	≤ 0.2
DMTV	≤ 0.2
FNVR	≤ 0.2
PMSR	≤ 0.2
ETPF	≤ 0.2
GLLE	≤ 0.2
CHLS	≤ 0.2
ACAL	≤ 0.2
IKTG	≤ 0.2
DCMR	≤ 0.2
WQMG	≤ 0.2
WCYR	≤ 0.2
TTTP	≤ 0.2
VPSF	≤ 0.2

Variant	one-hybrid fitness for binding parS DNA
LPTE	≤ 0.2
HWMS	≤ 0.2
GPQR	≤ 0.2
QASV	≤ 0.2
APSI	≤ 0.2
AYIV	≤ 0.2
SLLD	≤ 0.2
IDMS	≤ 0.2
NHKS	≤ 0.2
KTNA	≤ 0.2
CVWV	≤ 0.2
RGRI	≤ 0.2
SDAG	≤ 0.2
PRIT	≤ 0.2
GCPS	≤ 0.2
SLGL	≤ 0.2
KPMP	≤ 0.2
EMLR	≤ 0.2
AFEM	≤ 0.2
DYMG	≤ 0.2
RYVP	≤ 0.2
NTGT	≤ 0.2
PNLS	≤ 0.2
LNFL	≤ 0.2

Variant	one-hybrid fitness for binding parS DNA
MCRM	≤ 0.2
HAPT	≤ 0.2
RKCM	0.286
QNPS	≤ 0.2
VSGN	≤ 0.2
CDWS	≤ 0.2
RGKC	0.833
CQMG	≤ 0.2
TPWY	≤ 0.2
PAPW	≤ 0.2
TSCR	≤ 0.2
GNDY	≤ 0.2
DSCS	≤ 0.2
MPDT	≤ 0.2
NWVS	≤ 0.2
RAHC	0.983
RRGI	≤ 0.2
QSVT	≤ 0.2
